The campaign covered roughly 410,000 compounds. About 6,400 (1.6%) were called active. Inconclusive results, whose numbers are uncertain, are shown with a selection of clear calls. Calls come from the whole dose curve; as a rule, active = well fitted inhibition curve with a large enough effect; inconclusive = small, poorly fitted or top-dose-only effect; inactive = no such curve, though single readings can be large or run the other way. Potencies of inconclusive entries are left out as doubtful fits.
Each compound was assayed against Glucagon-like peptide 1 receptor (Homo sapiens) (UniProt P43220) (assay: qHTS of GLP-1 Receptor Inverse Agonists (Inhibition Mode)). Conditions: HEK293 GLP-1R CRE-luciferase, luminescence, 24 h, GLP-1R form is constitutively active; activity change, negative = inhibition: at 38.3 µM (top of the series) unless noted.
In short: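 HEK293 cells stably co-expressing constitutively active GLP-1R and a cAMP-responsive luciferase reporter were seeded in DMEM with 10% Nu serum, given compounds after 12 h, and incubated 24 h at 37 deg C. Luminescence was then read.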
% is set by controls: 0 for no effect and ±100 for the full control effect; potency is the fitted concentration of half-maximal effect; tags give direction and shape of the fitted curve.
Note: nearly all actives have a fitted effect of over 55% in size.

Chain of UniProt P43220 (P43220 whole entry, looked up): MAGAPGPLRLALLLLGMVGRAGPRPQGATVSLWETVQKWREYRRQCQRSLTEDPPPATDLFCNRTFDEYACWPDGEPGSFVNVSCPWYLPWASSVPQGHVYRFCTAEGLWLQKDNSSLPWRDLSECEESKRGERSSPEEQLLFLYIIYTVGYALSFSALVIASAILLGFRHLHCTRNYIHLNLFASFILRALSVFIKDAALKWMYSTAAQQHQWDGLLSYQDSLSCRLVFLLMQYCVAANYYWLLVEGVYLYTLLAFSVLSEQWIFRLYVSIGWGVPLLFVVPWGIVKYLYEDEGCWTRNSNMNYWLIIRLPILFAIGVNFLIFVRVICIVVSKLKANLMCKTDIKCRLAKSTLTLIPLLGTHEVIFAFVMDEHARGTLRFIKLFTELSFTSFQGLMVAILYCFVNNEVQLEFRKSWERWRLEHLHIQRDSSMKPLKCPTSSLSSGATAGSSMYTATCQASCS

Row | SMILES | activity change, negative = inhibition | Potency
1 | O=C(CCl)N1N=C(c2cccs2)CC1c1ccco1 (centres undefined) | inactive: -17.5% [at 0.307 µM] | 
2 | Cc1cc(C)c(-c2cc(NC(=O)CSc3n[nH]c(N)n3)n(-c3ccccc3)n2)cc1C |  | inconclusive [inhibitor, single point]
3 | O=S(=O)(c1ccc(-c2csc(=Nc3ccc(F)cc3)n2CCCCCCO)cc1)N1CCCC1 |  | inconclusive [inhibitor, partial curve, poor fit]
4 | COC(=O)[C@@]12C[C@@H](CC(=O)N3CCSCC3)C(=O)N(Cc3cccc4ccccc34)C1=CCC(C)(C)C2 |  | inconclusive [inhibitor, single point]
5 | CNc1nc(NCCOC23CC4CC(CC(C4)C2)C3)nc(OCC(F)(F)F)n1 |  | inconclusive [inhibitor, full curve, poor fit]
6 | COc1ccc(-c2c(C)[nH]n3c(=O)c(Cc4ccccc4)c(C)nc23)cc1OC |  | inconclusive [inhibitor, partial curve, poor fit]
7 | O=C(Cc1ccc(F)cc1)N1CCC(CC2CC(c3ccc(Cl)cc3)=NO2)(C(=O)NCC2CCCCC2)CC1 (centres undefined) |  | inconclusive [inhibitor, single point]
8 | COc1ccccc1CNC(=O)N1CCN(S(=O)(=O)c2ccccc2)CC1 | inactive: 15% | 
9 | CCCc1nnc(NC(=O)Cc2coc3c(C)c(C)ccc23)s1 | inactive: 9.88% | 
10 | Nc1c(C(=O)Nc2ccccc2)nnn1-c1ccc2c(c1)OCCO2 |  | inconclusive [inhibitor, partial curve, poor fit]
11 | O=C(C1CCCN(Cc2ccccc2F)C1)N1CCc2ccccc2C1 (centres undefined) |  | inconclusive [inhibitor, single point]
12 | Cc1c(C(=O)N2CCC(C)CC2)oc2ccc3c(c12)C(O)CC1(CCCCC1)O3 (centres undefined) |  | inconclusive [inhibitor, partial curve, poor fit]
13 | COc1ccc(C(=O)N/N=C(\C)CC(=O)Nc2cccc(C(F)(F)F)c2)cc1 |  | inconclusive [inhibitor, partial curve, poor fit]
14 | CCCN1CCN(CCCNC(=O)C2CCCN(c3nc4ccc(OCC)cc4s3)C2)CC1 (centres undefined) | inactive: -15.9% | 
15 | Cc1ccc(Nc2c(-c3cccnc3)nc3ccc(Cl)cn23)cc1 | inactive: 6.22% | 
16 | COc1cc2nc3n(c(=O)c2cc1OC)-c1cc2ccccc2cc1C(=O)NC3CC(C)C (centres undefined) |  | inconclusive [inhibitor, single point]
17 | COc1ccc(NS(=O)(=O)c2ccc3nc(COc4ccc(Cl)c(C)c4)[nH]c3c2)cc1 |  | inconclusive [inhibitor, full curve, poor fit]
18 | C/C=C/C(=O)OCC(=O)Nc1cc(-c2cc(C)c(C)cc2C)nn1-c1ccccc1 |  | inconclusive [inhibitor, partial curve, poor fit]
19 | CC(C)n1cnc2c(Nc3cccc(Cl)c3)nc(NCCCO)nc21 |  | inconclusive [inhibitor, single point]
20 | O=C(C[C@H]1C[C@H](C(=O)N2CCOCC2)[C@@]2(CCC3CCCC3)c3[nH]c4cc(-c5ccco5)ccc4c3CCN2C1=O)NCc1cccc(C(F)(F)F)c1 |  | inconclusive [inhibitor, partial curve, poor fit]

Row | SMILES | activity change, negative = inhibition | Potency
21 | NS(=O)(=O)c1ccc(CCNC(=O)c2cc(-c3ccc(Br)cc3)nc3ccccc23)cc1 |  | inconclusive [inhibitor, single point]
22 | Cc1ccc2c(c1)Cc1c(nc(-c3ccc(F)cc3)nc1SCC(=O)N1CCCCC1)O2 | inactive: 2.58% | 
23 | O=C(c1ccc(F)cc1)c1ccc(N2CCCCC2)cc1 |  | inconclusive [inhibitor, single point]
24 | CCOc1ccc(NC(=O)C2C(c3ccccc3)C2(Cl)Cl)cc1 (centres undefined) |  | inconclusive [inhibitor, full curve, poor fit]
25 | CC(=O)N1CCCC(C)(C(=O)Nc2cccc(OC(C)C)c2)C1 (centres undefined) | inactive: 7.54% | 
26 | CCc1noc(C)c1C(=O)Nc1ccc(S(=O)(=O)N2CCCC(C)C2)cc1 (centres undefined) |  | inconclusive [inhibitor, single point]
27 | COc1cc(C(=O)Oc2c(CN3CCOCC3)cc(Cl)c3cccnc23)cc(OC)c1OC |  | inconclusive [inhibitor, full curve, poor fit]
28 | COc1ccc2c(c1)C(CC(=O)NN)CCC2 (centres undefined) |  | inconclusive [inhibitor, full curve, poor fit]
29 | c1csc(-c2nc(NCC3CCCO3)c3ccccc3n2)c1 (centres undefined) |  | inconclusive [inhibitor, partial curve, poor fit]
30 | O=C(c1ccc(Cl)cc1)C1CCN(C(=O)NC2CCCCC2)CC1 |  | inconclusive [inhibitor, single point]
31 | CCN(CC)CCN1CCN(c2cncc(-c3ccc4ccccc4c3)n2)CC1 |  | inconclusive [inhibitor, full curve]
32 | COc1ccccc1CNC(=O)CSc1ccc(Br)cc1 |  | inconclusive [inhibitor, single point]
33 | OC(COc1cccc2ccccc12)CN1CCN(c2ccccc2)CC1 (centres undefined) |  | inconclusive [inhibitor, single point]
34 | CC(C)C[C@@H]1Cc2[nH][nH]c(=O)c2[C@H](C(C)C)O1 |  | inconclusive [inhibitor, partial curve]
35 | Cc1ccc2oc(-c3cc(NC(=O)CC(C)C)ccc3Cl)nc2c1 | inactive: 0.612% | 
36 | Cc1cc(C)cc(NC(=O)N2CCC(C(=O)c3ccc(F)cc3)CC2)c1 |  | inconclusive [inhibitor, single point]
37 | Clc1cccc(-c2nc3nc4ccccc4nc3n2Cc2ccco2)c1 |  | inconclusive [inhibitor, full curve]
38 | Cc1ccc(O)c(N=Cc2cc(Cc3ccccc3)cc([N+](=O)[O-])c2O)c1 |  | inconclusive [inhibitor, single point]
39 | c1ccc(CNc2c(-c3cccc(SC4CCCCC4)c3)nc3ccccn23)cc1 |  | inconclusive [inhibitor, partial curve, poor fit]
